Source: a collection of fitness landscapes (doi:10.1126/science.1257360)
Some of the results follow.

B1: PhoQ; a variant is named by its letters at X, in order, P23837 (parent)
chain: MKKLLRLFFPLSLRVRFLLATAAVVLVLSLAYGMVALIGYSVSFDKTTFRLLRGESNLFYTLAKWENNKLHVELPENIDKQSPTMTLIYDENGQLLWAQRDVPWLMKMIQPDWLKSNGFHEIEADVNDTSLLLSGDHSIQQQLQEVREDDDDAEMTHSVAVNVYPATSRMPKLTIVVVDTIPVELKSSYMVWSWFIYVLSANLLLVIPLLWVAAWWSLRPIEALAKEVRELEEHNRELLNPATTRELTSLVRNLNRLLKSERERYDKYRTTLTDLTHSLKTPLXXLQXXLRSLRSEKMSVSDAEPVMLEQISRISQQIGYYLHRASMRGGTLLSRELHPVAPLLDNLTSALNKVYQRKGVNISLDISPEISFVGEQNDFVEVMGNVLDNACKYCLEFVEISARQTDEHLYIVVEDDGPGIPLSKREVIFDRGQRVDTLRPGQGVGLAVAREITEQYEGKIVAGESMLGGARMEVIFGRQHSAPKDE

Variants of: B1
Experiment: enrichment ratio after two sorts for PhoP signalling (ratio (wild type AVST 3.29)); higher = more functional
Conditions: with PhoP (E. coli)

Variant | enrichment ratio
IHIS | ≤ 0.25
GLCF | 5.36
TPAM | ≤ 0.25
IEDM | ≤ 0.25
VHDM | ≤ 0.25
GLCD | ≤ 0.25
ARTY | ≤ 0.25
GWNC | ≤ 0.25
DVCG | ≤ 0.25
ELSS | ≤ 0.25
AQEP | ≤ 0.25
RKVG | ≤ 0.25
QNCH | ≤ 0.25
MTVF | 2.09
WEKY | ≤ 0.25
SNQA | ≤ 0.25
IIVM | ≤ 0.25
EGDR | ≤ 0.25
EYNK | ≤ 0.25
WYCH | ≤ 0.25
HGSH | ≤ 0.25
TYPY | ≤ 0.25
LPKE | ≤ 0.25
ADTN | ≤ 0.25
SQPK | ≤ 0.25

Variant | enrichment ratio
PLLG | ≤ 0.25
DQRD | ≤ 0.25
PQEN | ≤ 0.25
SSGV | 8.14
YWAC | ≤ 0.25
LGRM | ≤ 0.25
GYAG | ≤ 0.25
DILW | ≤ 0.25
FFLM | ≤ 0.25
FAAI | ≤ 0.25
YIQF | 0.38
PCDV | ≤ 0.25
VTPT | ≤ 0.25
THLT | 1.96
HDGK | ≤ 0.25
EMNP | ≤ 0.25
WSDH | ≤ 0.25
APQS | ≤ 0.25
MLSD | ≤ 0.25
NVKL | ≤ 0.25
WYLT | ≤ 0.25
LFVH | ≤ 0.25
NAAL | ≤ 0.25
YWHQ | ≤ 0.25
HSSF | ≤ 0.25

Variant | enrichment ratio
DEGR | ≤ 0.25
NFGD | ≤ 0.25
MVSA | ≤ 0.25
YGGS | ≤ 0.25
AWCQ | ≤ 0.25
MGGK | ≤ 0.25
SIGC | 7.68
AWCF | ≤ 0.25
QKFW | ≤ 0.25
DAGK | ≤ 0.25
NTAK | ≤ 0.25
GCCE | ≤ 0.25
QKPR | ≤ 0.25
YYSP | ≤ 0.25
MHCG | ≤ 0.25
KHTL | ≤ 0.25
IGRL | ≤ 0.25
RCMP | ≤ 0.25
RMHR | ≤ 0.25
YDCL | ≤ 0.25
QYER | ≤ 0.25
HMSR | ≤ 0.25
YGRI | ≤ 0.25
RAND | ≤ 0.25
PSRM | ≤ 0.25

Variant | enrichment ratio
SHMS | ≤ 0.25
NPVD | ≤ 0.25
WPTK | ≤ 0.25
PAAF | ≤ 0.25
IKYN | ≤ 0.25
IVWC | ≤ 0.25
RMQE | ≤ 0.25
QCNN | ≤ 0.25
QDEM | ≤ 0.25
LQPE | ≤ 0.25
LNQC | ≤ 0.25
WHIN | ≤ 0.25
FDIS | ≤ 0.25
KDSP | ≤ 0.25
YKNG | ≤ 0.25
SSQH | 0.704
GFNA | ≤ 0.25
KRDR | ≤ 0.25
NVMW | ≤ 0.25
PGIL | ≤ 0.25
RFKS | ≤ 0.25
WTFV | ≤ 0.25
EMEI | ≤ 0.25
PRNV | ≤ 0.25
EGDT | ≤ 0.25

Variant | enrichment ratio
NISC | 2.97
SNAN | 6.54
RKMI | ≤ 0.25
TVND | ≤ 0.25
IMYT | ≤ 0.25
MPMT | ≤ 0.25
QSSH | 2.99
SFRG | ≤ 0.25
GNNP | ≤ 0.25
YSMY | ≤ 0.25
TYCY | 2.04
FTGS | ≤ 0.25
TSKY | ≤ 0.25
MEDM | ≤ 0.25
TSCI | 14.8
VFSE | ≤ 0.25
GLRS | ≤ 0.25
EPYI | ≤ 0.25
WHAC | ≤ 0.25
NMLQ | ≤ 0.25
YNGF | ≤ 0.25
TINA | 7.11
DIPT | ≤ 0.25
FRIY | ≤ 0.25
LCFC | ≤ 0.25

Variant | enrichment ratio
TFCM | 0.908
LPKF | ≤ 0.25
MFQG | ≤ 0.25
FEFA | ≤ 0.25
HSDW | ≤ 0.25
SWEF | ≤ 0.25
DSHI | ≤ 0.25
LQFD | ≤ 0.25
VMES | ≤ 0.25
CYLF | ≤ 0.25
VFHV | ≤ 0.25
KTPL | ≤ 0.25
NQTY | ≤ 0.25
LPTS | ≤ 0.25
MHWC | ≤ 0.25
EYLA | ≤ 0.25
DTMW | ≤ 0.25
MFEL | ≤ 0.25
FWQS | ≤ 0.25
SCRG | ≤ 0.25
VRFC | ≤ 0.25
IDQR | ≤ 0.25
LESL | ≤ 0.25
FPDE | ≤ 0.25
EAHL | ≤ 0.25

Variant | enrichment ratio
QSHQ | 22.4
TKGM | 3.37
HVRK | ≤ 0.25
QVAG | ≤ 0.25
YDIY | ≤ 0.25
AWQH | ≤ 0.25
ITVW | ≤ 0.25
NLHP | ≤ 0.25
PDND | ≤ 0.25
HYNR | ≤ 0.25
FATY | ≤ 0.25
GKDV | ≤ 0.25
EYTS | ≤ 0.25
GVCV | 3.13
VEYF | ≤ 0.25
AHIH | ≤ 0.25
AMGP | ≤ 0.25
SGHP | ≤ 0.25
YESR | ≤ 0.25
HFGM | ≤ 0.25
QGGW | ≤ 0.25
SRRM | ≤ 0.25
YSID | ≤ 0.25
PCPW | ≤ 0.25
DMRM | ≤ 0.25

Variant | enrichment ratio
YNNS | ≤ 0.25
HPPY | ≤ 0.25
LYPM | ≤ 0.25
PIEC | ≤ 0.25
SQCD | 11.4
PRSC | ≤ 0.25
FPTE | ≤ 0.25
YMNR | ≤ 0.25
DFDQ | ≤ 0.25
NRPR | ≤ 0.25
DTLR | ≤ 0.25
TPVS | ≤ 0.25
FIAH | ≤ 0.25
PQWM | ≤ 0.25
AIHF | ≤ 0.25
WCMT | ≤ 0.25
IRAY | ≤ 0.25
LQAR | ≤ 0.25
YFNA | ≤ 0.25
KVRD | ≤ 0.25
